Results on 21 molecules are retold here after US6531481B2 (priority 1998, dated 2003).

The target of experiment [1] is T1, kappa opioid receptor (Cavia porcellus, UniProt P41144). Nature of the experiment: Library screening in competitive binding against kappa selective ligand [3H]U69,593 at 100 nM. Also noted: from tissue; species or system guinea pig. Conditions: for % Inhibition at 100 nm: versus kappa opioid selective ligand [3H]U69,593, selected library compounds; for % Inhibition: Kappa Receptor Assay, library compounds of formula (I) given by R1, R2, R3 (acid), screened at 100 nM.

For experiment [2], the target named is T2, mu opioid receptor (Cavia porcellus, UniProt A0ACM8Q262). Description: Inhibition of DAMGO-stimulated [35S]GTPγS binding in guinea pig caudate. The class given is biochemical. The conditions noted are these: for Ki (radioligand)/Ki (GTPγS) binding ratio, mu receptor: mu receptor assays.
For experiment [3], the target named is T3, delta opioid receptor (Cavia porcellus, UniProt A0A286XTF2). Description: biochemical. The class given is biochemical, guinea pig.
The target of experiment [4] is T1, kappa opioid receptor. The experiment is classed as biochemical, guinea pig. Also on record: from tissue. Conditions: for Ki (radioligand)/Ki (GTPγS) binding ratio, kappa receptor: kappa receptor assays.
Experiment [5] deals with T2, mu opioid receptor. Conditions: data taken from ref. 1, cited from earlier work.
For experiment [6], the target named is T3, delta opioid receptor. Conditions: data taken from ref. 1, cited from earlier work.
The target in experiment [7] is T1, kappa opioid receptor. Also noted: from tissue. The conditions noted are these: data taken from ref. 1, cited from earlier work.
The target in experiment [8] is mu opioid receptor (Rattus norvegicus, UniProt P33535). Also noted: using rat brain membranes prepared as described; from tissue; host or cells: rat brain membranes. Conditions: data taken from ref. 1, cited from earlier work.
The target of experiment [9] is T2, mu opioid receptor. The conditions noted are these: data taken from ref. 7; guinea pig brain membranes; read-out: Ki [3H]DAMGO (μ); cited from earlier work.
Experiment [10] concerns the target T1, kappa opioid receptor. Description: Literature kappa binding assay with [3H]U69593, guinea pig brain membranes (ref. 7). Also noted: from tissue. Conditions: ratio of Ki values taken from ref. 7.

Several values for one entry are separate records, joined by “and”; a condition that tells them apart may be missing. Equal entries are not always repeated. Where two headings read alike, the source gives them in different places.

“N-{(2′S)-[3-(4-Fluorophenyl)propanamido]-3′-methylbutyl}-(3R,4R)-dimethyl-4-(3-hydroxyphenyl)piperidine [Compound 15]”: the “% Inhibition at 100 nm” value in experiment [1] stood at 26%.

As to `CN1CCC2(c3cccc(O)c3)Cc3ccccc3CC2(C)C1` (racemic) [Compound 7, (±)-1,2,3,4,4a,5,10,10a-octahydro-4a-(3-hydroxyphenyl)-2,10a-dimethylbenzo-[g]isoquinoline], the “slope factor (−nH / N), DAMGO” value in experiment [2] ([35S]GTPγS assay) is on record as “(0.94 ± 0.06)”. The same molecule had a Ki in [3] of 222 ± 30.7 nM. Moreover, the “slope factor (−nH / N), SNC80” value in experiment [3] ([35S]GTPγS assay) was “(0.78 ± 0.09)”. Further, the “slope factor (−nH / N), U69,593” value in experiment [4] ([35S]GTPγS assay) was “(1.10 ± 0.14)”.

As to “N-{(2′S)-[3-(3,4-Dihydroxyphenyl)propanamido]-3′-methylbutyl}-(3R,4R)-dimethyl-4-(3-hydroxyphenyl)piperidine [Compound 16]”, the “% Inhibition at 100 nm” value in experiment [1] came to 31%.

For the molecule “(+)-N-[trans-4-phenyl-2-butenyl]-(3R,4R)-dimethyl-4-(3-hydroxyphenyl)piperidine [Compound 5a]”, the “Ki (radioligand)/Ki (GTPγS) binding ratio, mu receptor” value in experiment [2] came out at 19. Besides, in experiment [5], the “slope factor (−nH), DAMGO” value is “(1.06 ± 0.07)”. Besides, the Ki in experiment [5] (read-out: Ki, inhibition of DAMGO (μ) stimulated [35S]GTPγS binding) was 0.039 ± 0.003 nM; in experiment [6] (read-out: Ki, inhibition of SNC80 (δ) stimulated [35S]GTPγS binding) it was 1.48 ± 0.094 nM; in experiment [7] (read-out: Ki, inhibition of U69,593 (κ) stimulated [35S]GTPγS binding), 1.04 ± 0.061 nM; in [8] (read-out: Ki [3H]DAMGO (μ)), 0.74 ± 0.05 nM. Besides, the “slope factor (−nH), SNC80” value in experiment [6] is recorded as “(1.19 ± 0.08)”. Further, in experiment [4], the “Ki (radioligand)/Ki (GTPγS) binding ratio, kappa receptor” value was determined as 118. In experiment [7], the “slope factor (−nH), U69,593” value is “(1.07 ± 0.06)”. Moreover, the “slope factor (-nH) [3H]DAMGO” value in experiment [8] is listed as “(0.89 ± 0.09)”.

In the case of “N-{(2′S)-[3-(4-Hydroxyphenyl)propanamido]propyl}-(3R,4R)-dimethyl-4-(3-hydroxyphenyl)piperidine [Compound 20]”, in [1], the “% Inhibition” value was found to be 11% and the “% Inhibition at 100 nm” value was 20%.

On to `C[C@H]1CN(CC[C@H](O)C2CCCCC2)CC[C@@]1(C)c1cccc(O)c1` [Compound 5d], for which the “Ki (radioligand)/Ki (GTPγS) binding ratio, mu receptor” value in [2] was determined as 15. Further, the “Ki (radioligand)/Ki (GTPγS) binding ratio, kappa receptor” value in experiment [4] was 85.

On to “N-{(2′S)-[3-(3-Methoxy-4-hydroxyphenyl)propanamido]-3′-methylbutyl}-(3R,4R)-dimethyl-4-(3-hydroxyphenyl)piperidine [Compound 17]”, for which the “% Inhibition at 100 nm” value in experiment [1] is listed as 42%.

As to “N-{2′-[3-(4-Hydroxyphenyl)-N-methylpropanamido]ethyl}-(3R,4R)-dimethyl-4-(3-hydroxyphenyl)piperidine [Compound 21]”, in experiment [1], the “% Inhibition” value came out at 0%.

As for `O=C1CC[C@@]2(O)[C@H]3Cc4ccc(O)c5c4[C@@]2(CCN3CC2CC2)[C@H]1O5` [naltrexone], the “slope factor (−nH / N), DAMGO” value in [2] ([35S]GTPγS assay, listed as 1, naltrexone) is “(1.00 ± 0.22)”.

Consider “N-{(2′S)-[trans-3-(4-Hydroxyphenyl)acrylamido]-3′-methylbutyl}-(3R,4R)-dimethyl-4-(3-hydroxyphenyl)piperidine [Compound 14]”, for which, in experiment [1], the “% Inhibition” value is recorded as 15%.

Consider `CC1C2CCCC1(c1cccc(O)c1)CCN2CCc1ccccc1` (stereo not drawn) [Compound 5c, 5-(3-Hydroxyphenyl)-9β-methyl-2-(2′-phenylethyl)-2-azabicyclo[3.3.1]nonane], for which the “increase in antagonist potency at mu, N-phenethyl vs N-methyl (5b)” value in experiment [2] ([35S]GTPγS assay) turned out to be 63 fold. For the same molecule, the inhibition constant Ki was 0.338 ± 0.028 nM in experiment [2] (guinea pig caudate, Ki ± SD, read-out: Ki, inhibition of DAMGO (μ) stimulated [35S]GTPγS binding) and 12.6 ± 1.01 nM in [3] (guinea pig caudate, Ki ± SD, read-out: Ki, inhibition of SNC80 (δ) stimulated [35S]GTPγS binding). Also, the “Ki (radioligand)/Ki (GTPγS) binding ratio, mu receptor” value in experiment [2] is 43. Moreover, the “increase in antagonist potency at delta, N-phenethyl vs N-methyl (5b)” value in experiment [3] ([35S]GTPγS assay) amounted to 60 fold. Besides, the “increase in antagonist potency at kappa, N-phenethyl vs N-methyl (5b)” value in experiment [4] ([35S]GTPγS assay) worked out at 70 fold. The “Ki (radioligand)/Ki (GTPγS) binding ratio, kappa receptor” value in experiment [4] turned out to be 63.

For “N-{2′-[3-(4-Hydroxyphenyl)propanamido]ethyl}-(3R,4R)-dimethyl-4-(3-hydroxyphenyl)piperidine [Compound 19]”, the “% Inhibition” value in [1] (listed as H/H/PP6, 0.1 µM) is 14% and 11%. For the same molecule, the “% Inhibition at 100 nm” value in experiment [1] was determined as 11%.

As to “N-{(2′S)-[3-(4-Hydroxyphenyl)propanamido]-3′-methylbutyl}-(3R,4R)-dimethyl-4-(3-hydroxyphenyl)piperidine [Compound 8]”, the “% Inhibition” value in experiment [1] is 70%.

As to “N-{(2′S)-[3-(4-Hydroxyphenyl)-N-methylpropanamido]propyl}-(3R,4R)-dimethyl-4-(3-hydroxyphenyl)piperidine [Compound 22]”, in experiment [1], the “% Inhibition” value came to 1% and the “% Inhibition at 100 nm” value was determined as 1%.

As for “N-{(2′S)-[3-(3-Hydroxyphenyl)propanamido]-3′-methylbutyl}-(3R,4R)-dimethyl-4-(3-hydroxyphenyl)piperidine [Compound 11]”, in experiment [1], the “% Inhibition” value was 20% and the “% Inhibition at 100 nm” value came to 20%.

As to `Oc1ccc2c3c1O[C@H]1c4[nH]c5c(c4C[C@@]4(O)[C@@H](C2)N(CC2CC2)CC[C@]314)C[C@@]1(O)[C@H]2Cc3ccc(O)c4c3[C@@]1(CCN2CC1CC1)[C@H]5O4` [1 (nor-BNI), norbinaltorphimine], the “slope factor (−nH / N), DAMGO” value in experiment [2] ([35S]GTPγS assay) is “(1.02 ± 0.09)”. Also, the “Ki (radioligand)/Ki (GTPγS) binding ratio, mu receptor” value in experiment [2] is given as 2.8. Further, in [3] ([35S]GTPγS assay), the “slope factor (−nH / N), SNC80” value is “(1.18 ± 0.12)”. Also, the inhibition constant Ki in experiment [9] was 47.2 ± 3.3 nM. Also, the “slope factor (−nH / N), U69,593” value in experiment [4] ([35S]GTPγS assay) was “(0.97 ± 0.12)”. Also, the inhibition constant (Ki) in experiment [4] (guinea pig caudate, Ki ± SD, read-out: Ki, inhibition of U69,593 (κ) stimulated [35S]GTPγS binding) amounted to 0.038 ± 0.005 nM. Further, in experiment [4], the “Ki (radioligand)/Ki (GTPγS) binding ratio, kappa receptor” value turned out to be 7.36. In experiment [10], the δ/κ is listed as 150 and the μ/κ stood at 181.

“N-{(2′S)-[(4-Hydroxyphenyl)acetamido]-3′-methylbutyl}-(3R,4R)-dimethyl-4-(3-hydroxyphenyl)piperidine [Compound 13]”: in experiment [1], the “% Inhibition” value is reported as 6% and the “% Inhibition at 100 nm” value was found to be 6%.

Turning to `CC(C)[C@H](CN1CC[C@@](C)(c2cccc(O)c2)[C@@H](C)C1)NC(=O)CCc1ccc(O)cc1` [Compound 9], in [1], the “% Inhibition” value came out at 11% and the “% Inhibition at 100 nm” value stood at 11%.

Consider “N-{(2′S)-[3-(4-Hydroxyphenyl)-N-methylpropanamido]-2′-phenylethyl}-(3R,4R)-dimethyl-4-(3-hydroxyphenyl)piperidine [Compound 23]”, for which, in [1], the “% Inhibition” value is 7% and the “% Inhibition at 100 nm” value is given as 7%.

For “N-{(2′S)-[(3-Phenylpropanamido)-3′-methyl]butyl}-(3R,4R)-dimethyl-4-(3-hydroxyphenyl)piperidine [Compound 10]”, in experiment [1], the “% Inhibition” value came out at 28% and the “% Inhibition at 100 nm” value worked out at 28%.

“N-{(2′S)-[3-(2-Hydroxyphenyl)propanamido]-3′-methylbutyl}-(3R,4R)-dimethyl-4-(3-hydroxyphenyl)piperidine [Compound 12]”: in experiment [1], the “% Inhibition” value is recorded as 18% and the “% Inhibition at 100 nm” value is 25%.

In general, % Inhibition refers to the percentage by which the read-out fell short of the control. Higher therefore signals strong suppression. By Ki is commonly meant a measure of affinity in units of concentration, obtained from inhibition or displacement.
